The list shows a part of the results. Most values come without repeats; read them as rough.
Columns and labels:
Experiment in all cases: cell count relative to DMSO control; melanoma cells; higher = more viable cells
Details in all cases: library dose: low library concentration; 72 h
[1] = system: MZ2-MEL
[2] = system: MeWo
[3] = system: RPMI7951
[4] = system: RVH-421
[5] = system: SkMel28
[6] = system: SkMel2
[7] = system: SkMel30
[8] = system: SkMel5
[9] = system: UACC257
[10] = system: UACC62
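Also: cell number obtained by counting DAPI-stained nuclei in high-throughput microscope images with image analysis software, screen run in 1,536-well plates.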

| SMILES | cell count [1] | cell count [2] | cell count [3] | cell count [4] | cell count [5] | cell count [6] | cell count [7] | cell count [8] | cell count [9] | cell count [10] |
| --- | --- | --- | --- | --- | --- | --- | --- | --- | --- | --- |
| O=C(/C=C/c1cccnc1)NCCCCC1CCN(C(=O)c2ccccc2)CC1 + C[C@@H]1CCN(C(=O)CC#N)C[C@@H]1N(C)c1ncnc2[nH]ccc12 [CP690550] (first compound 0.01 µM, partner dose 1 µM) | 43.1% | 94.4% | 95% | 56.6% | 84.7% | 53.4% | 90.9% | 76% | 141% | 97.9% |
| O=C(/C=C/c1cccnc1)NCCCCC1CCN(C(=O)c2ccccc2)CC1 + O=C1NC(=O)/C(=C/c2ccc(-c3ccc(F)cc3O)o2)S1 [AS252424] (first compound 0.01 µM, partner dose 1 µM) | 40.6% | 87.1% | 106% | 45.1% | 126% | 45.5% | 71.2% | 95.5% | 115% | 106% |
| CC1(C)CCC(c2ccc(Cl)cc2)=C(CN2CCN(c3ccc(C(=O)NS(=O)(=O)c4ccc(N[C@H](CCN5CCOCC5)CSc5ccccc5)c(S(=O)(=O)C(F)(F)F)c4)cc3)CC2)C1 + CN(C)S(=O)(=O)c1ccc2c(c1)/C(=C/c1cc3c([nH]1)CCCC3)C(=O)N2 [SU6656] (first compound 0.4 µM, partner dose 0.4 µM) | 101% | 62.5% | 58.2% | 60.3% | 100% | 96.4% | 77.3% | 68.3% | 70.4% | 98.7% |
| CC1(C)CCC(c2ccc(Cl)cc2)=C(CN2CCN(c3ccc(C(=O)NS(=O)(=O)c4ccc(N[C@H](CCN5CCOCC5)CSc5ccccc5)c(S(=O)(=O)C(F)(F)F)c4)cc3)CC2)C1 + O=S(=O)(c1ccccc1)N(CC(F)(F)F)c1ccc(C(O)(C(F)(F)F)C(F)(F)F)cc1 [T0901317] (first compound 0.4 µM, partner dose 1.4 µM) | 94.1% | 54.5% | 48.3% | 63.3% | 88.4% | 85.3% | 56% | 59.3% | 75.6% | 97.1% |
| Cc1ccc(Nc2nccc(N(C)c3ccc4c(C)n(C)nc4c3)n2)cc1S(N)(=O)=O [Pazopanib] + c1cc(-c2cnn3cc(-c4ccc(OCCN5CCCCC5)cc4)cnc23)ccn1 [Dorsomorphin] (first compound 0.4 µM, partner dose 0.4 µM) | 83.2% | 105% | 84.5% | 88.2% | 86.1% | 120% | 72.3% | 70.1% | 62.4% | 81.8% |
| Cc1ccc(Nc2nccc(N(C)c3ccc4c(C)n(C)nc4c3)n2)cc1S(N)(=O)=O [Pazopanib] + C[C@@H]1CCN(C(=O)CC#N)C[C@@H]1N(C)c1ncnc2[nH]ccc12 [CP690550] (first compound 0.4 µM, partner dose 1 µM) | 76.4% | 98.4% | 86.9% | 86.6% | 96% | 92.9% | 85.8% | 93.3% | 90.7% | 98.7% |
| CC1(C)CCC(c2ccc(Cl)cc2)=C(CN2CCN(c3ccc(C(=O)NS(=O)(=O)c4ccc(N[C@H](CCN5CCOCC5)CSc5ccccc5)c(S(=O)(=O)C(F)(F)F)c4)cc3)CC2)C1 + CC(C)CCN1c2nc(Nc3cc(F)c(O)c(F)c3)ncc2N(C)C(=O)C1C [BID1870] (first compound 0.4 µM, partner dose 0.2 µM) | 98.1% | 37.7% | 35.1% | 145% | 51.1% | 81.2% | 38.3% | 68.3% | 173% | 60.1% |
| O=C(/C=C/c1cccnc1)NCCCCC1CCN(C(=O)c2ccccc2)CC1 + CC(C)CCN1c2nc(Nc3cc(F)c(O)c(F)c3)ncc2N(C)C(=O)C1C [BID1870] (first compound 0.01 µM, partner dose 0.2 µM) | 45.8% | 101% | 99.4% | 49.9% | 89.4% | 36.8% | 90.1% | 100% | 76.7% | 71.8% |
| CC1(C)CCC(c2ccc(Cl)cc2)=C(CN2CCN(c3ccc(C(=O)NS(=O)(=O)c4ccc(N[C@H](CCN5CCOCC5)CSc5ccccc5)c(S(=O)(=O)C(F)(F)F)c4)cc3)CC2)C1 + Cc1cc(N2CCOCC2)cc2[nH]c(-c3c(NC[C@@H](O)c4cccc(Cl)c4)cc[nH]c3=O)nc12 [BMS536924] (first compound 0.4 µM, partner dose 0.2 µM) | 92.3% | 74.9% | 64.5% | 77.4% | 90.7% | 77.2% | 65.8% | 80.8% | 85.1% | 101% |
| O=C(/C=C/c1cccnc1)NCCCCC1CCN(C(=O)c2ccccc2)CC1 + Oc1cc(-c2nc(-c3ccccc3)[nH]c2-c2ccncc2)ccc1Cl [L779450] (first compound 0.01 µM, partner dose 0.2 µM) | 35.3% | 95.4% | 98% | 71.4% | 70.1% | 52.8% | 99% | 98.4% | 81.1% | 65.2% |
| CC1(C)CCC(c2ccc(Cl)cc2)=C(CN2CCN(c3ccc(C(=O)NS(=O)(=O)c4ccc(N[C@H](CCN5CCOCC5)CSc5ccccc5)c(S(=O)(=O)C(F)(F)F)c4)cc3)CC2)C1 + CN(NC(=O)CC(=O)NN(C)C(=S)c1ccccc1)C(=S)c1ccccc1 [STA4783] (first compound 0.4 µM, partner dose 0.006 µM) | 91% | 84.7% | 57.7% | 95.2% | 82.1% | 95.2% | 75.1% | 83.4% | 77.4% | 103% |
| O=C(/C=C/c1cccnc1)NCCCCC1CCN(C(=O)c2ccccc2)CC1 + COc1cc(N2CCC(N3CCN(C)CC3)CC2)ccc1Nc1ncc(Cl)c(Nc2ccccc2S(=O)(=O)C(C)C)n1 [NVP-TAE684] (first compound 0.01 µM, partner dose 0.08 µM) | 46.9% | 94.7% | 97.7% | 43.3% | 88.5% | 39.7% | 88.7% | 87.6% | 76% | 96.2% |
| O=C(/C=C/c1cccnc1)NCCCCC1CCN(C(=O)c2ccccc2)CC1 + O=c1cc(-c2cccc3c2Sc2ccccc2S3)oc(N2CCOCC2)c1 [KU55933] (first compound 0.01 µM, partner dose 1 µM) | 40.8% | 106% | 89.7% | 70.8% | 95.7% | 52.2% | 77.1% | 90.9% | 108% | 95.7% |
| Cc1ccc(Nc2nccc(N(C)c3ccc4c(C)n(C)nc4c3)n2)cc1S(N)(=O)=O [Pazopanib] + O=C(CCCCCCC(=O)Nc1ccccc1)NO [vorinostat] (first compound 0.4 µM, partner dose 0.08 µM) | 71.1% | 97.3% | 101% | 99.8% | 79.6% | 97% | 79.2% | 90.2% | 88.1% | 87.7% |
| Cc1ccc(Nc2nccc(N(C)c3ccc4c(C)n(C)nc4c3)n2)cc1S(N)(=O)=O [Pazopanib] + CC1(C)NC(=O)N(c2ccc([N+](=O)[O-])c(C(F)(F)F)c2)C1=O [nilutamide] (first compound 0.4 µM, partner dose 1 µM) | 84.3% | 95.2% | 99.1% | 87.5% | 90.3% | 105% | 91.1% | 88.7% | 95% | 91.5% |
| O=C(/C=C/c1cccnc1)NCCCCC1CCN(C(=O)c2ccccc2)CC1 + CCc1ccc(CCOc2ccc(CC3SC(=O)NC3=O)cc2)nc1 [pioglitazone] (first compound 0.01 µM, partner dose 2 µM) | 44.5% | 109% | 101% | 50% | 94.4% | 45.3% | 95.9% | 83.8% | 112% | 91.7% |
| O=C(/C=C/c1cccnc1)NCCCCC1CCN(C(=O)c2ccccc2)CC1 + COc1ccc(COc2ccc(Cc3cnc(N)nc3N)cc2OC)cc1 [GW2580] (first compound 0.01 µM, partner dose 1 µM) | 50.8% | 104% | 91.6% | 55.3% | 85.3% | 44.3% | 98.8% | 80.7% | 79% | 80.6% |
| Cc1ccc(Nc2nccc(N(C)c3ccc4c(C)n(C)nc4c3)n2)cc1S(N)(=O)=O [Pazopanib] + CO[C@@H]1[C@H](N(C)C(=O)c2ccccc2)C[C@H]2O[C@]1(C)n1c3ccccc3c3c4c(c5c6ccccc6n2c5c31)C(=O)NC4 [Midostaurin] (first compound 0.4 µM, partner dose 0.08 µM) | 68.3% | 79.5% | 78.9% | 97.1% | 102% | 79.6% | 67.4% | 80.8% | 102% | 85.5% |
| CC1(C)CCC(c2ccc(Cl)cc2)=C(CN2CCN(c3ccc(C(=O)NS(=O)(=O)c4ccc(N[C@H](CCN5CCOCC5)CSc5ccccc5)c(S(=O)(=O)C(F)(F)F)c4)cc3)CC2)C1 + COc1cc(Nc2ncc(F)c(Nc3ccc4c(n3)NC(=O)C(C)(C)O4)n2)cc(OC)c1OC [Tamatinib] (first compound 0.4 µM, partner dose 0.4 µM) | 76.6% | 67.7% | 54.6% | 67.8% | 73.2% | 76.9% | 60.9% | 68% | 43.7% | 72.8% |
| O=C(/C=C/c1cccnc1)NCCCCC1CCN(C(=O)c2ccccc2)CC1 + O=C(Nc1cccc(Cl)c1)Nc1ncc(CCNc2ncnc3ccsc23)s1 [SNS314] (first compound 0.01 µM, partner dose 0.0008 µM) | 49.7% | 106% | 109% | 55.3% | 78.6% | 55% | 90.7% | 85.6% | 113% | 84.1% |
| CC1(C)CCC(c2ccc(Cl)cc2)=C(CN2CCN(c3ccc(C(=O)NS(=O)(=O)c4ccc(N[C@H](CCN5CCOCC5)CSc5ccccc5)c(S(=O)(=O)C(F)(F)F)c4)cc3)CC2)C1 + COc1ccc(COc2ccc(Cc3cnc(N)nc3N)cc2OC)cc1 [GW2580] (first compound 0.4 µM, partner dose 1 µM) | 97.9% | 68.6% | 62.3% | 55.6% | 109% | 87.2% | 67.2% | 69.6% | 134% | 102% |

Reference: the supplement of paper PMC4604168 (melanoma cell lines)
